Assay results published in PubChem BioAssay AID686979 (National Center for Advancing Translational Sciences (NCATS), 2013).
Values joined by “and” are separate entries in the source; they are usually repeats but may differ in a detail not shown here. Equal entries are not always repeated. In all, about 420,000 compounds went through this assay and about 50,000 (12%) were called active. Inconclusive results, whose numbers are uncertain, are shown with a selection of clear calls. Calls follow the shape of the dose curve; as a rule, active = well fitted inhibition curve with a large enough effect; inconclusive = small, poorly fitted or top-dose-only effect; inactive = flat fitted curve, though single readings scatter. Potencies of inconclusive entries are doubtful fits and often do not repeat. Some structures have more than one record in an assay (separate samples or runs), and their calls can disagree.

assay: qHTS for Inhibitors of human tyrosyl-DNA phosphodiesterase 1 (TDP1): qHTS in cells in presence of CPT; conditions: chicken DT40 Tdp1-/-;hTDP1 cells + 20 nM CPT, ATP luminescence, 48 h; activity change, negative = growth inhibition: at 46.2 µM (top of the series) unless noted; also: nearly all actives have a fitted effect of over 55% in size
Procedure, shortened: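 Cell growth measured by CellTiter-Glo luminescence after a minimum 48 h, 37 C compound exposure with 20 nM CPT in Tdp1-knockout DT40 cells stably expressing hTDP1, seeded 400/well; qHTS titration format.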
% is scaled to controls: 0 for no effect and ±100 for the full control effect; potency is read from the fitted curve at half-maximal effect; tags tell the direction and shape of the fitted curve.

Q: With `O=C(CN1CCCC1)N1CCN(c2ccccc2)CC1` as the compound, how does the “activity change, negative = growth inhibition” value read?
A: inactive: -10.3%

Q: With `O=S(=O)(NCc1cccnc1)c1ccc2ccccc2c1` as the compound, how does the Potency read?
A: inconclusive: 29.1 µM [inhibitor, single point]

Q: Which Potency does the source give for `COc1ccc(C(=O)N2N=C(c3cccc(NS(C)(=O)=O)c3)CC2c2cccs2)cc1` (stereo not drawn) here?
A: inconclusive: 29.1 µM [inhibitor, partial curve, poor fit]

Q: Which Potency does the source give for `COCCOC(=O)C1=C(C)NC(C)=C(C(=O)OCCOC)C1/C=C/c1ccccc1OC` here?
A: inconclusive: 23.1 µM [inhibitor, single point]

Q: For `COC(=O)c1ccc(CNC(=O)CN2C(=O)NC(Cc3ccccc3)(c3ccccc3)C2=O)cc1` (stereo not drawn), which Potency is on record?
A: inconclusive: 20.6 µM [inhibitor, single point]

Q: With `CCOc1ccccc1N1CCN(C(=O)c2cn(CC3CCCCC3)nn2)CC1` as the compound, how does the Potency read?
A: inconclusive: 16.4 µM [inhibitor, single point]

Q: For `CC(Oc1ccc(Br)cc1)C(=O)O/N=C(\N)c1ccncc1` (stereo not drawn), which “activity change, negative = growth inhibition” value is on record?
A: inactive: -12.3%

Q: With `Cc1ccc(NC(=O)c2oc3ccc4c(c3c2C)C(=O)CC(C)(C)O4)c(C)c1` as the compound, how does the Potency read?
A: inconclusive: 16.4 µM [inhibitor, single point]

Q: Which “activity change, negative = growth inhibition” value does the source give for `Cc1ccc(S(=O)(=O)N2CCC[C@H]2C(=O)OCC(=O)c2ccc3c(c2)NC(=O)CO3)cc1` here?
A: inactive: -18.2%

Q: Which “activity change, negative = growth inhibition” value does the source give for `O=C1CC(c2ccccc2)=Nc2ccccc2N1Cc1ccccc1` here?
A: inactive: -8.13%

Q: Which Potency does the source give for `CNC(=S)Nc1cc(Cl)ccc1Oc1ccccc1` here?
A: inconclusive: 29.1 µM [inhibitor, single point]

Q: Which Potency does the source give for `CC(=O)c1cnn(-c2cc(Oc3ccccc3C)ncn2)c1C` here?
A: inconclusive: 29.1 µM [inhibitor, single point]

Q: For `Cc1ccccc1C(=O)Nc1nnc(S(=O)(=O)N2CCCCC2)s1`, which Potency is on record?
A: inconclusive: 16.4 µM [inhibitor, single point]

Q: With `C(=N\NC1=NCCN1)/c1ccncc1` as the compound, how does the “activity change, negative = growth inhibition” value read?
A: inactive: -5.67%

Q: With `CCC(C)C(=O)Nc1nc(C)c(-c2csc(Nc3ccc(Cl)cc3)n2)s1` (stereo not drawn) as the compound, how does the Potency read?
A: active: 16.4 µM

Q: With `CC(O)CNc1nc2c(c(=O)n(C)c(=O)n2C)n1Cc1cccc(C(F)(F)F)c1` (stereo not drawn) as the compound, how does the Potency read?
A: inconclusive: 29.1 µM [inhibitor, partial curve]

Q: Which Potency does the source give for `CCCN1CCc2c(sc(NC(=O)c3ccc(S(=O)(=O)N(C)c4ccccc4)cc3)c2C(N)=O)C1` here?
A: active: 20.6 µM

Q: Which Potency does the source give for `COc1ccc(C2C=C(c3ccc(Cl)cc3)Nc3nc(-c4ccc(Cl)cc4)nn32)cc1` (stereo not drawn) here?
A: active: 8.2 µM

Q: With `O=C(CSc1n[nH]c(-c2ccc(F)cc2)n1)NCc1ccccc1Cl` as the compound, how does the Potency read?
A: inconclusive: 23.1 µM [inhibitor, single point]

Q: With `Cc1ccc(C(OCC(O)CNCc2ccc(F)cc2)c2ccccc2)cc1` (stereo not drawn) as the compound, how does the Potency read?
A: active: 14.6 µM

Q: For `COCC(C)NS(=O)(=O)c1ccccc1` (stereo not drawn), which “activity change, negative = growth inhibition” value is on record?
A: inactive: -23.3%

Q: Which “activity change, negative = growth inhibition” value does the source give for `CCCCn1c(N)c(N(CCOC)C(=O)CCC2CCCCC2)c(=O)[nH]c1=O` here?
A: inactive: -21.9%

Q: For `CCOc1c(Br)cc(C2CC(=O)Nc3cc4c(cc32)OCO4)cc1OC` (stereo not drawn), which Potency is on record?
A: active: 2.91 µM

Q: For `COc1ccc(/C=N/NC(=O)OC(C)(C)C)cc1OC`, which “activity change, negative = growth inhibition” value is on record?
A: inactive: 2.32%

Q: Which Potency does the source give for `Cc1cc(Br)ccc1NC(=O)C(C)c1ccc([N+](=O)[O-])cc1` (stereo not drawn) here?
A: inconclusive: 29.1 µM [inhibitor, single point]

Q: Which Potency does the source give for `FC(F)(F)c1ccc(C2[C@H]3CN(Cc4ccc(-c5ccccc5)cc4)[C@H](c4ccccc4)C34CC2(c2cccnc2)C4)cc1` (stereo partly drawn) here?
A: inconclusive: 23.1 µM [inhibitor, single point]

Q: Which “activity change, negative = growth inhibition” value does the source give for `O=C(O)CCC/C=C\C[C@@H]1CO[C@H](C(F)(F)F)O[C@@H]1c1ccccc1O` here?
A: inactive: -2.11%

Q: Which “activity change, negative = growth inhibition” value does the source give for `COc1ccc(C2/C(=C(/O)c3ccccc3)C(=O)C(=O)N2C)cc1OC` (stereo not drawn) here?
A: inactive: -3.73%

Q: Which Potency does the source give for `COc1ccc(-c2nc3cc(C)ccn3c2NC2CCCCC2)cc1SC1CCCCC1` here?
A: active: 29.6 µM

Q: For `CCN1CCOC(CC(=O)Nc2ccc([N+](=O)[O-])cc2)C1=O` (stereo not drawn), which Potency is on record?
A: active: 14.6 µM

Q: Which Potency does the source give for `CCC(C(=O)NCCCc1ccccc1)n1nc(C)c2c(C)n(-c3ccccc3)nc2c1=O` (stereo not drawn) here?
A: inconclusive: 20.6 µM [inhibitor, single point]

Q: Which Potency does the source give for `Cc1coc2c1c(C)cc1oc(=O)c(Cc3ccccc3)c(C)c12` here?
A: inconclusive: 16.4 µM [inhibitor, partial curve]

Q: With `CCOC(=O)C1(Cc2cccc(OC)c2)CCN(Cc2cccc(OC)c2OC)CC1` as the compound, how does the Potency read?
A: inconclusive: 18.4 µM [inhibitor, single point]

Q: Which Potency does the source give for `Cc1nn(-c2ccc(NC(=O)c3ccncc3)cc2)c(C)c1Cl` here?
A: inconclusive: 29.1 µM [inhibitor, single point]

Q: Which Potency does the source give for `CCN(c1ccccc1)S(=O)(=O)c1ccc(Cl)c(C(=O)N(CC2CCCO2)C2CCS(=O)(=O)C2)c1` (stereo not drawn) here?
A: inconclusive: 23.1 µM [inhibitor, single point]

Q: Which Potency does the source give for `CC(C)NC[C@H](O)c1ccc(O)c(O)c1` here?
A: active: 4.73 µM

Q: For `CCc1cccc(C)c1NC(=O)COC(=O)Cc1ccccc1`, which “activity change, negative = growth inhibition” value is on record?
A: inactive: -4.28%

Q: For `CC(=O)N1CCc2cc(Br)cc(S(=O)(=O)N3CCC(C(=O)Nc4ccc(C(C)C)cc4)CC3)c21`, which Potency is on record?
A: inconclusive: 29.1 µM [inhibitor, single point]

Q: Which Potency does the source give for `O=c1c2ccccc2sc2ccc(C#CC3(O)CCCCC3)cc12` here?
A: inconclusive: 18.4 µM [inhibitor, single point]

Q: Which Potency does the source give for `COc1ccc(S(=O)(=O)N2CCOC2CNC(=O)C(=O)NCc2ccccn2)cc1OC` (stereo not drawn) here?
A: inconclusive: 32.6 µM [inhibitor, single point]

Q: With `CCOc1ccc(CN(C)C(=O)CNC(=O)C2CCCCC2)cc1` as the compound, how does the “activity change, negative = growth inhibition” value read?
A: inactive: 0.483%

Q: With `CCN=C1S/C(=C\c2cc(Br)ccc2OCC(=O)OCC)C(=O)N1CC` as the compound, how does the Potency read?
A: inconclusive: 18.4 µM [inhibitor, single point]

Q: Which Potency does the source give for `O=C(Nc1c(Cl)cc(Cl)cc1-c1nc2ccccc2s1)c1ccc(Br)o1` here?
A: inconclusive: 28.2 µM [inhibitor, single point]

Q: Which Potency does the source give for `O=C(COC(=O)c1c2c(nc3ccccc13)/C(=C\c1ccco1)CC2)NC1CCCC1` here?
A: active: 16.4 µM

Q: With `Cc1ccc2ncc(NC(=O)c3ccc(F)cc3)c(=O)n2c1` as the compound, how does the “activity change, negative = growth inhibition” value read?
A: inactive: -13.4%

Q: With `COc1cccc(CN2CCC3(CCC(CNC(=O)c4cc(C)nn4C)O3)CC2)c1OC` (stereo not drawn) as the compound, how does the activity change, negative = growth inhibition read?
A: inactive: 3.99% [at 9.04 µM]

Q: For `COC(=O)c1ccc(NC(=O)CSc2nnc(C3CC3)n2C)cc1`, which “activity change, negative = growth inhibition” value is on record?
A: inactive: 6.22%

Q: For `Cc1ccccc1OCC(=O)NCC(c1ccc(Cl)cc1)N1CCCCC1` (stereo not drawn), which Potency is on record?
A: active: 20.6 µM

Q: Which “activity change, negative = growth inhibition” value does the source give for `COc1ccc(-c2nc3c(c4nnc(SC(C)C(=O)Nc5ccc(C)cc5)n24)COC(C)(C)C3)cc1` (stereo not drawn) here?
A: inactive: 3.17%

Q: For `CCOc1ccc(/C=C/c2nc(C#N)c(NC(C)c3ccccc3)o2)cc1` (stereo not drawn), which Potency is on record?
A: active: 13 µM

Q: With `CCCCc1c(-c2ccc(OC)cc2)ncn1CCc1ccccc1OC` as the compound, how does the Potency read?
A: active: 20.6 µM

Q: With `CSc1ncc(C(=O)Nc2cccc(Cl)c2C)c(C)n1` as the compound, how does the “activity change, negative = growth inhibition” value read?
A: inactive: -5.47%

Q: For `Cn1ncc2c(N3CCN(c4ccccc4F)CC3)ncnc21`, which Potency is on record?
A: inconclusive: 25.1 µM [inhibitor, single point] and inconclusive: 23.1 µM [inhibitor, single point]

Q: Which Potency does the source give for `Cn1ccsc1=NC(=O)c1ccc(S(C)(=O)=O)c([N+](=O)[O-])c1` here?
A: active: 4.61 µM

Q: Which Potency does the source give for `Cc1ccc(CN2CCc3c(OCc4ccc(F)cc4)cccc3C2=O)cc1` here?
A: inconclusive: 23.1 µM [inhibitor, single point]

Q: Which activity change, negative = growth inhibition does the source give for `COc1ccc(NC(=O)c2cccs2)cc1NC(=O)c1ccco1` here?
A: inconclusive: -31.4% [inhibitor]

Q: With `COc1ccccc1N1CCN(C(=O)Nc2cccc(C)c2)CC1` as the compound, how does the “activity change, negative = growth inhibition” value read?
A: inactive: 9.37%

Q: Which Potency does the source give for `Cc1cccc(C)c1C(OCCN(C)C)C1CCCCC1` (stereo not drawn) here?
A: active: 18.4 µM

Q: Which “activity change, negative = growth inhibition” value does the source give for `O=C(Nc1ccc(Oc2ccccc2)cc1)c1csc([C@@H]2O[C@H](CO)[C@H](O)[C@H](O)[C@H]2O)n1` here?
A: inactive: 0.135%

Q: Which Potency does the source give for `CN(C)S(=O)(=O)Nc1cc(Cl)cc(Cl)c1` here?
A: active: 18.4 µM

Q: Which activity change, negative = growth inhibition does the source give for `CCOC(=O)c1cc(C(=O)Nc2ccccc2F)nn1C` here?
A: inconclusive: -30.1% [inhibitor]

Q: With `O=C(CC(c1ccccc1)c1cc(Br)ccc1O)NCc1ccco1` (stereo not drawn) as the compound, how does the Potency read?
A: inconclusive: 23.1 µM [inhibitor, single point]

Q: Which Potency does the source give for `COc1cccc(C(=O)N2c3ncnn3C3(CCCCC3)[C@@H]3CCCC[C@@H]32)c1` here?
A: inconclusive: 29.1 µM [inhibitor, single point]

Q: For `CC(=O)Nc1ccc(S(=O)(=O)N(Cc2cccnc2)Cc2cc3ccc(C)cc3[nH]c2=O)cc1`, which Potency is on record?
A: inconclusive: 29.1 µM [inhibitor, single point]

Q: For `CC(NC(=O)COC(=O)Cc1ccsc1)C1CC2CCC1C2` (stereo not drawn), which Potency is on record?
A: inconclusive: 14.6 µM [inhibitor, single point]

Q: Which Potency does the source give for `CCCCC1=CC2=C(c3ccco3)C(=O)C(C)(OC(=O)c3ccc(OC)cc3)C(=O)C2=CN1Cc1ccco1` (stereo not drawn) here?
A: inconclusive: 18.4 µM [inhibitor, single point]

Q: Which “activity change, negative = growth inhibition” value does the source give for `O=S1c2ccccc2Sc2ccccc21` here?
A: inactive: -9.69%

Q: With `COc1ccc(S(=O)(=O)N2CCOCC2)cc1NC(=O)CCc1c[nH]c2ccccc12` as the compound, how does the “activity change, negative = growth inhibition” value read?
A: inactive: 5.48%

Q: With `CC(=O)Nc1sc2c(c1CN1CCN(c3ccc(F)cc3)CC1)CCCC2` as the compound, how does the Potency read?
A: inconclusive: 23.1 µM [inhibitor, single point]

Q: For `Cc1ccc[n+](CC(=O)Nc2ccc(N(C)C)cc2)c1`, which “activity change, negative = growth inhibition” value is on record?
A: inactive: -10.3%

Q: Which Potency does the source give for `C[C@@H]1CCCCO[C@H](CN(C)C(=O)C2CCCCC2)[C@@H](C)CN([C@H](C)CO)C(=O)c2cc(N(C)C)ccc2O1` here?
A: inconclusive: 23.1 µM [inhibitor, single point]

Q: Which Potency does the source give for `Cc1cc(C)c(NC(=O)CN(C)C(C)C(=O)N2CCc3ccccc32)c(C)c1` (stereo not drawn) here?
A: inconclusive: 29.1 µM [inhibitor, single point]

Q: For `COc1ccc(CNc2cc(-c3ccccc3Cl)ncn2)c(OC)c1`, which Potency is on record?
A: inconclusive: 29.1 µM [inhibitor, single point]
